# From the supplement of paper PMC12217912
# This is one part of the list. The full chains were built here from the parent and the listed change. Values near 0.05 are background.
# B1: TEV protease; numbered along this chain (parent)
# chain: MGESLFKGPRDYNPISSSICHLTNESDGHTTSLYGIGFGPFIITNKHLFRRNNGTLVVQSLHGVFKVKDTTTLQQHLVDGRDMIIIRMPKDFPPFPQKLKFREPQREERICLVTTNFQTKSMSSMVSDTSCTFPSGDGIFWKHWIQTKDGQCGSPLVSTRDGFIVGIHSASNFTNTNNYFTSVPKNFMELLTNQEAQQWVSGWRLNADSVLWGGHKVFMVKPEEPFQPVKEATQL
# Variants of: B1
# Assay: raw area under fraction-flipped curve 0-4 h after induction (AUC4h, not background-subtracted), DNA-recorder readout of cleavage of the substrate (dimensionless); higher = more cleavage of the substrate by the protease variant
# Settings: temperature: 34 °C; time window: 0-4 h after rhamnose induction
# Description: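 In vivo DNA recorder in E. coli TOP10(DE3) ΔrhaA at 34 °C. Each TEVp single-site mutant (parent TEVp 0) is paired with a single-site variant of the 7-mer TEVs (canonical ENLYFQ|S). The substrate sits between flexible linkers in a Bxb1-sfGFP-TEVs-SsrA fusion, so cleavage stabilises Bxb1 and speeds flipping of a recombination array, read by NGS. The value is the raw area under the fraction-flipped curve over 0-4 h after rhamnose induction (AUC4h), with ≥20 reads per time point. It is not background-subtracted; inactive controls average about 0.047.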
# 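Also: Bxb1 expression induced with 0.2% (w/v) L-rhamnose at OD600 near 0.5, cultures sampled hourly, flipped fraction per protease–substrate barcode pair counted by paired-end Illumina sequencing.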
Variant,area with substrate ANLYFQS,area with substrate CNLYFQS,area with substrate DNLYFQS,area with substrate FNLYFQS,area with substrate GNLYFQS,area with substrate HNLYFQS,area with substrate INLYFQS,area with substrate KNLYFQS,area with substrate LNLYFQS,area with substrate MNLYFQS,area with substrate NNLYFQS,area with substrate PNLYFQS,area with substrate SNLYFQS,area with substrate TNLYFQS,area with substrate WNLYFQS,area with substrate YNLYFQS,area with substrate QNLYFQS,area with substrate VNLYFQS,area with substrate RNLYFQS
I36A,0.11,0.0447,0.0726,0.0408,0.0549,0.0602,0.0334,0.0527,0.0515,0.0549,0.0533,0.0416,0.0546,0.0588,0.051,0.0364,,,
I36R,0.0497,0.0471,0.0537,0.0403,,0.0395,,0.0393,0.0437,,,0.0447,0.0495,0.0439,0.0454,,0.0487,0.0776,
I36V,0.063,0.097,0.0946,0.0625,,0.0693,,0.0796,0.0719,0.0691,0.0682,,0.0653,,,0.0695,0.0596,0.0686,
I36D,0.0365,0.0372,0.059,0.0399,,0.0424,0.0427,0.0491,0.0462,0.0459,,0.0453,0.0385,0.037,0.0409,0.0331,,0.0335,
I36E,0.0367,0.0505,0.0458,,0.0482,0.0439,0.0441,0.055,0.0499,0.0396,0.0545,0.0452,0.0511,0.033,0.0387,,0.0429,0.0427,
L56D,0.0318,0.0308,0.0396,0.0391,0.0397,0.0385,0.0314,0.0529,0.0504,0.0515,0.0355,0.0436,0.033,0.0426,0.0419,0.0489,0.0477,0.0456,
L56V,0.0628,0.0453,0.0632,0.0504,0.0556,0.0586,,0.0773,0.0542,,0.0655,0.0576,,0.0617,0.0498,0.102,,,
G54L,0.0659,0.0606,0.0524,,0.0492,0.0459,0.0471,,0.0633,0.0507,0.0628,0.0554,0.0475,0.0588,0.0483,0.0474,0.0412,0.0497,
G54H,0.0601,0.0486,0.0469,0.0598,0.051,0.0608,,,0.0609,0.0286,,0.0537,0.0621,0.0392,0.0584,0.045,0.0671,0.0545,0.0837
G54R,0.058,0.0513,0.056,0.0497,,0.0578,0.0833,0.0674,0.0591,0.0664,0.0562,0.0605,0.0789,0.0653,0.0658,0.0572,,,
T55G,0.0526,0.065,0.0663,0.059,0.0717,0.048,0.0692,,0.0565,0.067,,0.0534,,0.0808,,,0.062,0.0411,0.0639
V57L,0.072,0.0646,0.0955,,,,0.0852,,0.0733,,0.0705,,0.0595,,0.0941,0.055,,0.0782,
V57G,0.0514,0.0638,0.0834,0.0726,0.0623,0.0624,0.0649,,0.0554,0.0427,,0.0665,0.0384,0.0788,0.0609,,,,
V57W,0.0684,0.075,0.0883,,,0.0627,0.072,,0.0555,0.0675,,0.0764,0.0576,0.0507,0.0575,,,0.0735,
N45I,0.0498,0.0575,0.0745,0.0483,,0.0514,0.0511,0.0907,0.065,0.0468,0.0475,,0.0537,0.0575,0.052,0.0586,,0.0155,
N45H,0.0593,0.0529,0.0551,,0.0576,0.0517,0.0378,0.084,0.0653,0.0597,0.0578,0.0655,,0.0717,0.0537,0.0592,,,
N45V,0.0678,0.0521,0.0655,0.0529,0.0563,0.0562,0.0275,0.0711,0.067,0.0597,,0.0557,0.0583,0.0608,0.059,0.0503,,0.0485,
H62V,0.0698,0.0634,0.0832,,0.0768,0.0611,0.0629,0.0547,0.0513,,0.0749,0.0706,,0.0677,0.0495,,0.0358,,
H62D,0.019,0.0605,0.0779,0.0687,,0.0577,0.0755,0.0634,0.0664,0.0668,0.058,0.0652,0.0756,0.0635,0.063,,0.053,0.0578,
H62F,0.083,0.0833,0.0833,0.0639,,0.0597,0.0705,0.0642,,0.0636,0.0786,,0.0839,0.0547,0.0518,,0.0733,,
T44K,0.039,0.0528,0.0407,0.0467,0.0817,0.0502,0.0474,0.0399,,,0.0433,0.0552,0.0498,,0.0467,0.0172,,0.0467,
T44W,0.0499,0.0545,0.0377,0.0538,0.0429,0.0383,0.0458,0.0503,0.0463,0.0415,0.067,0.0438,0.0452,0.0484,0.0392,0.0379,0.0458,,0.0563
T44D,0.0368,0.0374,0.0546,0.0623,0.0485,0.0395,,0.0496,0.0392,0.071,0.0481,0.0355,0.0487,0.0363,0.0399,0.0417,,0.0322,
R50D,0.0611,0.0623,0.0663,0.0663,0.0614,0.0529,0.0512,0.0669,0.056,,,0.0683,0.0624,0.0693,,0.0509,,,
